Laboratory results: PMC12759081, “S-phase PARylation of microprotein RSMC enhances the function of Sororin in sister chromatid cohesion” (The EMBO Journal, 2025)

Target: T1, 6×His-Flag-Sororin (human, UniProt Q96FF9)
T1 construct: Sororin (CDCA5), Flag-Sororin cloned into pET28a; primers run from the start codon to the stop codon; also called 6×His-Flag-tagged Sororin; 6×His-Flag-Sororin WT; source: E. coli BL21 (DE3), purified (Ni2+ Sepharose)
Assay: pull-down; 1 μg 6×His-Flag-Sororin immobilised on anti-Flag M2 agarose, 1 μg GST-RSMC, its mutants or GST added; 50 mM Tris pH 8.0, 150 mM NaCl, 0.05% Triton X-100, 4 °C 2 h; SDS-PAGE and Coomassie staining
Conditions: both partners purified

Sequence of 6×His-Flag-Sororin (Q96FF9 whole entry): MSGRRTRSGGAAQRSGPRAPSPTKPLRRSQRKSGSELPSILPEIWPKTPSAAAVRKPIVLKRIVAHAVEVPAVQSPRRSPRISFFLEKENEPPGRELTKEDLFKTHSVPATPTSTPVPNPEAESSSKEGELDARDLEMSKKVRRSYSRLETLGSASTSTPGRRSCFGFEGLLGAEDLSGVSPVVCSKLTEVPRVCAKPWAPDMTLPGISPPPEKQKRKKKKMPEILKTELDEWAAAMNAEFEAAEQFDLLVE

B1: GST-RSMC-10A (natural protein, human, UniProt E9PRG8, looked up)
chain: MGAPGGKINRPRTELKKKLFKRRRVLNREAALAHAVVGAVIDQGLITRHHLKKRASSARANITLAGKKRRKLLQQIRLAQKEKTAMAVAAPSKPARTAEPQLKRQKKTKAPQAVAMKDLEDES
notes: RSMC (C11ORF98-encoded microprotein) with ten alanine substitutions; source: bacterial expression (pGEX-6p-1, IPTG), purified (Glutathione Sepharose 4B)
B1: binds.
